This is one part of the list.
What was measured:
Assay in all cases: glycan array binding signal (z-score within array); higher = stronger binding
Settings in all cases: glycan notation: IUPAC condensed, linker removed
[1] = target: Fuc(a1-2)[Gal(a1-3)]Gal(b1-4)GlcNAc(b1-2)Man(a1-3)[Fuc(a1-2)[Gal(a1-3)]Gal(b1-4)GlcNAc(b1-2)Man(a1-6)]Man(b1-4)GlcNAc(b1-4)GlcNAc
Outline: (§1)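 The Consortium for Functional Glycomics database supplied 3228 glycan arrays, of which those lacking an available protein sequence were dropped. The binding signal, a within-array Z-score, was averaged across arrays of the same protein sequence and across linkers. Negative scores can be read as non-binding.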

[2] = target: Fuc(a1-2)[Gal(a1-3)]Gal(b1-4)GlcNAc(b1-2)Man(a1-3)[Fuc(a1-2)[Gal(a1-3)]Gal(b1-4)GlcNAc(b1-2)Man(a1-6)]Man(b1-4)GlcNAc(b1-4)[Fuc(a1-6)]GlcNAc
Outline: as §1

[3] = target: Fuc(a1-2)[Gal(a1-3)]Gal(b1-4)GlcNAc(b1-3)GalNAc
Outline: as §1

[4] = target: Fuc(a1-2)[Gal(a1-3)]Gal(b1-4)GlcNAc(b1-3)[Fuc(a1-2)[Gal(a1-3)]Gal(b1-4)GlcNAc(b1-6)]GalNAc
Outline: as §1

[5] = target: Fuc(a1-2)[Gal(a1-3)]Gal(b1-4)GlcNAc(b1-6)GalNAc
Outline: as §1

[6] = target: Fuc(a1-2)[Gal(a1-3)]Gal(b1-4)[Fuc(a1-3)]Glc
Outline: as §1

[7] = target: Fuc(a1-2)[Gal(a1-3)]Gal(b1-4)[Fuc(a1-3)]GlcNAc
Outline: as §1

[8] = target: Fuc(a1-2)[Gal(a1-3)]Gal(b1-4)[Fuc(a1-3)]GlcNAc(b1-3)GalNAc
Outline: as §1

[9] = target: Fuc(a1-2)[Gal(a1-4)]Gal(b1-4)GlcNAc
Outline: as §1

[10] = target: Fuc(a1-2)[GalNAc(a1-3)]Gal
Outline: as §1

[11] = target: Fuc(a1-2)[GalNAc(a1-3)]Gal(b1-3)GalNAc(a1-3)[Fuc(a1-2)]Gal(b1-4)GlcNAc
Outline: as §1

[12] = target: Fuc(a1-2)[GalNAc(a1-3)]Gal(b1-3)GalNAc(b1-3)Gal(a1-4)Gal(b1-4)Glc
Outline: as §1

[13] = target: Fuc(a1-2)[GalNAc(a1-3)]Gal(b1-3)GlcNAc
Outline: as §1

[14] = target: Fuc(a1-2)[GalNAc(a1-3)]Gal(b1-3)GlcNAc(b1-2)Man(a1-3)[Fuc(a1-2)[GalNAc(a1-3)]Gal(b1-3)GlcNAc(b1-2)Man(a1-6)]Man(b1-4)GlcNAc(b1-4)GlcNAc
Outline: as §1

[15] = target: Fuc(a1-2)[GalNAc(a1-3)]Gal(b1-3)GlcNAc(b1-2)Man(a1-3)[Fuc(a1-2)[GalNAc(a1-3)]Gal(b1-3)GlcNAc(b1-2)Man(a1-6)]Man(b1-4)GlcNAc(b1-4)[Fuc(a1-6)]GlcNAc
Outline: as §1

[16] = target: Fuc(a1-2)[GalNAc(a1-3)]Gal(b1-3)GlcNAc(b1-3)GalNAc
Outline: as §1

[17] = target: Fuc(a1-2)[GalNAc(a1-3)]Gal(b1-3)GlcNAc(b1-6)GalNAc
Outline: as §1

[18] = target: Fuc(a1-2)[GalNAc(a1-3)]Gal(b1-4)Glc
Outline: as §1

[19] = target: Fuc(a1-2)[GalNAc(a1-3)]Gal(b1-4)GlcNAc
Outline: as §1

[20] = target: Fuc(a1-2)[GalNAc(a1-3)]Gal(b1-4)GlcNAc(b1-2)Man
Outline: as §1

[21] = target: Fuc(a1-2)[GalNAc(a1-3)]Gal(b1-4)GlcNAc(b1-2)Man(a1-3)[Fuc(a1-2)[GalNAc(a1-3)]Gal(b1-4)GlcNAc(b1-2)Man(a1-6)]Man(b1-4)GlcNAc(b1-4)GlcNAc
Outline: as §1

[22] = target: Fuc(a1-2)[GalNAc(a1-3)]Gal(b1-4)GlcNAc(b1-2)Man(a1-3)[Fuc(a1-2)[GalNAc(a1-3)]Gal(b1-4)GlcNAc(b1-2)Man(a1-6)]Man(b1-4)GlcNAc(b1-4)[Fuc(a1-6)]GlcNAc
Outline: as §1

[23] = target: Fuc(a1-2)[GalNAc(a1-3)]Gal(b1-4)GlcNAc(b1-3)Gal(b1-4)GlcNAc
Outline: as §1

[24] = target: Fuc(a1-2)[GalNAc(a1-3)]Gal(b1-4)GlcNAc(b1-3)Gal(b1-4)GlcNAc(b1-3)Gal(b1-4)GlcNAc
Outline: as §1

[25] = target: Fuc(a1-2)[GalNAc(a1-3)]Gal(b1-4)GlcNAc(b1-3)GalNAc
Outline: as §1

[26] = target: Fuc(a1-2)[GalNAc(a1-3)]Gal(b1-4)GlcNAc(b1-3)[Fuc(a1-2)[GalNAc(a1-3)]Gal(b1-4)GlcNAc(b1-6)]GalNAc
Outline: as §1

[27] = target: Fuc(a1-2)[GalNAc(a1-3)]Gal(b1-4)GlcNAc(b1-6)GalNAc
Outline: as §1

[28] = target: Fuc(a1-2)[GalNAc(a1-3)]Gal(b1-4)[Fuc(a1-3)]GlcNAc
Outline: as §1

[29] = target: Fuc(a1-2)[GalNAc(a1-3)]Gal(b1-4)[Fuc(a1-3)]GlcNAc(b1-3)GalNAc
Outline: as §1

[30] = target: Fuc(a1-2)[GalNAc(a1-4)]Gal(b1-4)GlcNAc
Outline: as §1

B1: a L Fucosidase (Streptosporangium roseum), D2B1P1_STRRD (protein)
chain: MRRKLLLVPAVGLLVIGSIFATQPVASADTPPVYEPTVESLNSHPVPQWFNDDKFGIFIHWGAYSVPAWGPRGSYAEWYGNYMNAGGSATNAHHKATYGQDFNYDAFLQQWKAEKFDPADWVKLFKDAGAKYFVLTSKHHEGMALWDSKSSGRDSVDLGPGRDLAKELFDAARKDEAKLKAGFYYSLYEWYNPAYTGRPATNPYTGAEIPYTGAPGGGDYVKDYMLPQMRELIDGYDPDIIWCDGQWEKPASYWNTAGVIADYYNKALNSGKEVAVANRCKIQSGNLDSPELDFQTPEYTVKPDIDPVKWESSRGIAHSYGYNQNEPEEDHLTSDQLVDSLVDIVSKNGNLLLDIGPKADGTIPEIQRQRLLDIGAWLKANGEAIYGTTYWNRAEEKGGPDDVRYTAKDATLYATALKWPGEQLTLGADLPVDHSTRITMLGSGARLSWSRDEQGRVVVNTPQEAGKHAYVFKIETPGVRSLLRTSSSLAKEIAPGRTISGELTVTNPGKRHTPATKLSLTVPQGWTATLGAPRVRPLGPGESVKVPISVSAPEGVAPAPYTLGLYQRTGRMGTTTALPLTVNRPNLSLGKPATQKSTGYDAPASRAVDGNTGGDWSAGSTTHTAEPEKQAWWQVDLGASARLDSVDVWNRLDCCADRLKDFWVMASDQPFTTDDLDQARTAPGVTAVHVGEQAGSPSKVKLPEGTRGRYVRIQLASPSNPLSLAEVQVRGSMARPNLSLGKPATQKSTGYDAPASRAVDGNTGGDWSAGSTTHTAEPEKQAWWQVDLGASARLDSVDVWNRLDCCADRLKDFWVMASDQPFTTDDLDQARTAPGVTAVHVGEQAGSPSKVKLPEGTRGRYVRIQLASPSNPLSLAEVQVRLEHHHHHHS
With B1 the “glycan array binding signal (z-score)” value [1] was 0.885, the “glycan array binding signal (z-score)” value [2] was 0.891 and the “glycan array binding signal (z-score)” value [3] was -0.361. The “glycan array binding signal (z-score)” value [4] was 1.11, the “glycan array binding signal (z-score)” value [5] was -0.259 and the “glycan array binding signal (z-score)” value [6] was 2.13. For the same binder, the “glycan array binding signal (z-score)” value [7] was 1.75, the “glycan array binding signal (z-score)” value [8] was -0.075 and the “glycan array binding signal (z-score)” value [9] was 4.37. For the same binder, the “glycan array binding signal (z-score)” value [10] was 3.07, the “glycan array binding signal (z-score)” value [11] was -0.325 and the “glycan array binding signal (z-score)” value [12] was -0.376. For the same binder, the “glycan array binding signal (z-score)” value [13] was 0.379, the “glycan array binding signal (z-score)” value [14] was -0.193 and the “glycan array binding signal (z-score)” value [15] was 0.019. The “glycan array binding signal (z-score)” value [16] was 0.408, the “glycan array binding signal (z-score)” value [17] was -0.487 and the “glycan array binding signal (z-score)” value [18] was 2.75. The “glycan array binding signal (z-score)” value [19] was 0.006, the “glycan array binding signal (z-score)” value [20] was 1.44 and the “glycan array binding signal (z-score)” value [21] was -0.498. The “glycan array binding signal (z-score)” value [22] was 0.363, the “glycan array binding signal (z-score)” value [23] was 1.53 and the “glycan array binding signal (z-score)” value [24] was 4.02. For the same binder, the “glycan array binding signal (z-score)” value [25] was -0.162, the “glycan array binding signal (z-score)” value [26] was 0.654 and the “glycan array binding signal (z-score)” value [27] was -0.102. For the same binder, the “glycan array binding signal (z-score)” value [28] was 2.82, the “glycan array binding signal (z-score)” value [29] was -0.182 and the “glycan array binding signal (z-score)” value [30] was 0.416.

— the supplement of paper PMC8728848
